According to article PMC5951580, “The effect of acylation with fatty acids and other modifications on HLA class II:peptide binding and T cell stimulation for three model peptides” (PLoS ONE, 2018):

Tested on: 26 HLA class II molecules (HLA DRB1, DRB3/4/5, DP and DQ allelic variants)
Experiment: Competition binding of peptides to purified HLA class II molecules (inhibition of a radiolabeled peptide)
Conditions: binding = IC50 of 1000 nM or better, two-day incubation, three or more independent experiments

Peptide 7: Exendin-4 (1–39), 39-aa peptide used for the treatment of diabetes mellitus type 2, non-acylated [reference compound]
Number of HLA class II alleles bound (of 26 tested): seven
